Screen size: about 150,000 compounds; about 540 (0.36%) showed an effect of 50% or more. The list shows a part of the results.
Each compound was assayed on Plasmodium falciparum (assay: Primary screen in NF54 nanoGlo assay, in single point, at 2uM, 72h; a lower Z score goes with more inhibition). Settings: timepoint 72 hour.
Assay type: functional, Erythrocyte

Row | Structure (SMILES) | % Inhibition [%] | Z score
1 | Cc1c(C(=O)Nc2cnns2)oc2ccccc12 | -19 | 1.91
2 | O=C1Nc2c(-c3ccc(Cl)cc3)cnn2C[C@@H]1CC(=O)N1CCCC1 | -10 | 1.15
3 | CC[C@@](C)(C#CCN1CCC(Cc2ccccc2)CC1)OCCOCc1ccccc1 | -12 | 1.62
4 | CCn1nc(CC(N)=O)nc1CCn1cnc2ccccc2c1=O | -14 | 1.68
5 | N=C(N)c1ccc(-n2cc(-c3ccncc3)cn2)cc1C(F)(F)F | 17 | -3.04
6 | CCC(C(=O)Nc1cc(C)on1)N1CCOC(Cn2cc(C)cn2)C1 (stereo not given) | -13 | 1.37
7 | Cc1cccc(C)c1NC(=O)Cn1c(=O)n(CC(C)C)c(=O)c2nscc21 | -2 | 0.26
8 | Cc1cccc(C(=O)N[C@H]2COc3ccc(F)cc32)c1O | -13 | 1.64
9 | COc1cc(NC(=O)CCc2nnc3ccc(N4CCN(C)CC4)nn23)cc(OC)c1 | -27 | 2.63
10 | COc1ccc([C@H]2NC(=O)N(c3cccc(C(F)(F)F)c3C)C2=O)c(OC)c1 | -1 | 0.08
11 | O=C(Nc1ccc(Br)cc1)c1ccc2c(c1)nnn2Cc1ccccc1 | -10 | 1.34
12 | NC(=O)c1ccc(C(=O)N2CC(c3ccccc3F)C2)o1 | -12 | 1.47
13 | Cc1c(N2C(=O)[C@H](C)N(C3CCC3)C2=O)c(=O)n(-c2ccccc2)n1C | 23 | -2.64
14 | COCCN1CC2CN(C(=O)c3ccco3)CC(C1)O2 | 4 | -0.51
15 | Cc1noc(C)c1CC(=O)Nc1ccc(OC(C)C)nn1 | 2 | -0.24
16 | C[C@H](NC(=O)Nc1cccc2c1CCC2)c1nnc(N)s1 | -5 | 0.46
17 | O=C([C@H]1CCS(=O)(=O)C1)N(CCc1ccccc1)c1ccccc1 | -12 | 1.38
18 | O=C(c1csc2cncn12)N1CCC(CCCO)CC1 | -7 | 1.17
19 | CCn1cnc(CN[C@@H](C)C(C)OC)c1 (stereo not given in full) | -7 | 1.05
20 | Cn1ncc(C2CCC2)c1CNC(=O)CCc1ccncc1 | -3 | 0.52
21 | CC(=O)N1CCCc2cc(NCc3nc(C)cs3)ccc21 | -3 | 0.3
22 | COC(=O)N[C@@H](C)C(=O)N1CCC2(CCC(=O)N(Cc3ccncc3)C2)CC1 | -14 | 1.44
23 | Cc1cc(N2C3CCC2CC(O)C3)c(C#N)c(C)n1 (stereo not given) | -7 | 1.06
24 | O=C(O)c1cc2ncc(-c3cc(NCc4cccnc4)nc4[nH]ccc34)cn2n1 | -3 | 0.53
25 | O=S(=O)(NC(C1CC1)C1CC1)c1ccc(Cl)cc1 | 3 | -0.62
26 | CC(C)CN(CC(F)(F)F)C(=O)COc1ccc(CC#N)cc1 | -18 | 3.31
27 | CCc1ccc(S(=O)(=O)Nc2ncn(Cc3ccccc3Cl)n2)cc1 | -12 | 1.61
28 | COCc1nc(CNC(=O)c2ncccc2O)no1 | -8 | 1.34

Row | Structure (SMILES) | % Inhibition [%] | Z score
29 | O=C1NC(=O)[C@@]2(CCCN(C(=O)c3ccsc3)C2)N1 | -13 | 1.51
30 | CN1CCC(CN(C)C(=O)N[C@H]2CCCN(c3ccccc3Cl)C2)CC1 | -3 | 0.36
31 | O=C(NCc1ccccc1Cl)c1ncn(C[C@H](O)c2ccccc2)n1 | -18 | 2.06
32 | CC(C)c1noc([C@H](C)n2ccnc2C(C)(C)C)n1 | 4 | -0.38
33 | C[C@@H](C(=O)Nc1cccc(S(=O)(=O)N2CCOCC2)c1)N1CCN(CC=Cc2ccccc2)CC1 | -6 | 0.95
34 | CC(=O)NC1CCC(N[C@@H](C)COc2ccc(F)cc2)CC1 (stereo not given in full) | -2 | 0.25
35 | CCC(F)(F)C(C)(C)CNc1ccc(Cl)c(NC(C)=O)c1 | 3 | -0.39
36 | CN1CCC(NC(=O)c2cccc3ccccc23)CC1 | -16 | 1.51
37 | CNC(=O)c1cc(S(=O)(=O)N(C)Cc2nc3ccc(F)cc3[nH]2)cs1 | -7 | 1.16
38 | CCC(=O)N1CCc2cc(CNS(=O)(=O)N(C)C)ccc21 | -4 | 0.48
39 | Cc1nnsc1C(C)N1CCN(C(C)c2snnc2C)CC1 (stereo not given) | 2 | -0.33
40 | Cc1cc(C)c(S(=O)(=O)NC[C@@H](c2ccco2)N2CCc3ccccc3C2)c(C)c1 | -17 | 2.21
41 | COCCOCCc1nc(C(=O)Nc2cc(C)ccc2F)c[nH]1 | -4 | 0.71
42 | CN(C)c1cc(NC(=O)C[C@@H]2C=CCCC2)ncn1 | 5 | -0.94
43 | Cc1ccsc1CNc1cnc2c(c1)COCC2 | 3 | -0.42
44 | CCC[C@@](C)(CCCNC(=O)C(C)(C)C#N)C1OCCO1 | -3 | 0.32
45 | Cc1nc(CN2[C@H]3C[C@H]4CCC3(CS2(=O)=O)C4(C)C)oc1C | -2 | 0.25
46 | COCCc1noc([C@@H]2CCCN2CCn2cncn2)n1 | -5 | 1.01
47 | CC(C)c1ncc(C(=O)NCCCn2ccnc2)cn1 | -3 | 0.5
48 | CNC1CCN(C(=O)c2ccc3c(c2)n(CC2CC2)c(=O)n3C2CCCCC2)CC1 | -4 | 0.64
49 | Cn1nccc1CN1C[C@H]2C[C@H](c3ccccc3)CC[C@@]2(C(=O)O)C1 | 3 | -0.61
50 | COc1ccc(CNC(=O)CNC(C)C2CC3CCC2C3)cc1OC (stereo not given) | 13 | -2.09
51 | O=C1O[C@]2(CCCN(C(=O)c3ccc(F)cc3Cl)C2)c2ccccc21 | -11 | 1.45
52 | CCOC(=O)N1CCN(C(=O)c2cccc(-c3nc(C)cnc3C)c2)CC1 | -22 | 2.23
53 | CCCCCS(=O)(=O)N1CCCCC1 | -4 | 0.72
54 | CC(C)(C)CN(CCCO)S(=O)(=O)c1ccc(C#N)cc1F | -1 | 0.14
55 | CNC(=O)c1cccnc1N1C[C@H](NC(=O)C2CCCC2)[C@@H](C(C)C)C1 | 11 | -1.39

— ChEMBL document CHEMBL4888484, “Replenishing the malaria drug discovery pipeline: Screening and hit evaluation of the MMV Hit Generation Library 1 (HGL1) against asexual blood stage Plasmodium falciparum ,using a nano luciferase reporter read-out” (2022)
